Read counts are not given, so values of variants with three or more changes are uncertain.
B1: CPEB3 Ribozyme (parent)
chain: UAACAGGGGGCCACAGCAGAAGCGUUCACGUCGCAGCCCCUGUCAGAUUCUGGUGAAUCUGCGAAUUCUGCUGUAUAUCUC

Variants of: B1
Assay: self-cleavage, relative activity (ratio to wild type); higher = more cleavage; in vitro, sequencing
In short: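 Barcoded CPEB3 ribozyme mutants, produced by rounds of error-prone PCR, self-cleaved while being transcribed with T7 RNA polymerase for 5 hours at 37°C and during a subsequent 15 min DNase I step before EDTA was added. Sequencing of template-switched cDNA on Illumina gave cleaved and total reads, and DNA sequencing assigned barcodes to variants. Each variant's relative activity is its cleaved/total read fraction divided by the unmutated ribozyme's fraction, averaged across three batches. A variant needed a minimum of 5 reads.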

Question: For UAACUGGGGGCCUCAGCAGAAGCGCUCACGUCGCAGCCCCUGUCGGAUUCUGGUGAAUCUGCGAACUCUGCUGUAUAUCUC [A5U A13U U25C A45G U66C], which self-cleavage is on record?
Answer: Its self-cleavage is 0.48.

Question: With UAACUGGGGGCCACGGCAGAAGCGUUCUCGUCGCAGCCCCAGUCAGAUUCUGGUGAAUCCGCGAAUUCCGCUGUAUAUCUC [A5U A15G A28U U41A U60C U69C] as the variant, how does the self-cleavage read?
Answer: Its self-cleavage is 0.17.

Question: Which self-cleavage does the source give for UAACUGGGGGCCGCAGCAGAAGCGUUCACGUCGCAGCCCCUGUCAGAUUCUGGUGAAUCUGCGAACUCUGCUGUAUAUCUC [A5U A13G U66C] here?
Answer: The self-cleavage was 0.36.

Question: Which self-cleavage does the source give for UAACUGGGGGCCUCAGCAGGGGCGUUCGCGUCGCAGCCCCUGUCAGAUUCUGGUGAAUCUGCGAAUUCUGCCGUAUAUCUC [A5U A13U A20G A21G A28G U72C] here?
Answer: The self-cleavage was 0.43.

Question: With UAACGGGGGGCCACAGCAGAAGCGUUCACGUCGCAGCCCCUGUCAGAUUCUGGUGAAUCUGCGAAUUCUGCCGUAUAUAUC [A5G U72C C79A] as the variant, how does the self-cleavage read?
Answer: Its self-cleavage is 0.77.

Question: With UAACUGGGGGCCUCGGCAGAAGCGCUCACGUCGCUGCCCCUGUCAGAUUCUGGUGAAUCAGCGAAUUCUGCUGUAUAUCUC [A5U A13U A15G U25C A35U U60A] as the variant, how does the self-cleavage read?
Answer: The self-cleavage was 0.12.

Question: With UAACUGGGGGCCUCAGCAGAAGCGUACACGUCGCAGCCCCUGUCAGAUUCUGGUGAAUCUGCGAAUUCUGCUGUAAAUCUC [A5U A13U U26A U76A] as the variant, how does the self-cleavage read?
Answer: The self-cleavage was 1.23.

Question: With UAACUGGGGGCCACGGCAGAGGCGCACACGUCGCAGCCCCUGCCAGAUUCUGGUGAAUCUGCGAAUUCUGCUGUUUAUCUC [A5U A15G A21G U25C U26A U43C A75U] as the variant, how does the self-cleavage read?
Answer: The self-cleavage was 0.53.

Question: For UAACUGGGGGCCUCAGCAGAAGCGUUCACGUCGCAGACCCUGUCAGAUUCUGGUGAAUCUGCGAAUUCUGCUAUAUAUCCC [A5U A13U C37A G73A U80C], which self-cleavage is on record?
Answer: Its self-cleavage is 0.65.

Question: Which self-cleavage does the source give for UAACUGGGGGCCACUGCAGAGGCGUCCACGUCGCAGCCCCUGUCAGAUUCAGGUGAAUCUGCGAAUUCUGCUGUACAUCUU [A5U A15U A21G U26C U51A U76C C81U] here?
Answer: The self-cleavage was 0.3.

Question: With UAACUGGGGGCCACGGCGGAAGCGUUCACGUCGCAGCCUCUGUCAGAUUCUGGUGAAUCUGCGAGUUCUGCUGUAUAUCUC [A5U A15G A18G C39U A65G] as the variant, how does the self-cleavage read?
Answer: The self-cleavage was 0.15.

Question: For UAACUGGGGGCCACGGCAGAAGCGUUCACGCCGCAGCCCCUGUCAGAUUCUGGUGAAUCCGCGUAUUCUGCUGUAUAUCUC [A5U A15G U31C U60C A64U], which self-cleavage is on record?
Answer: Its self-cleavage is 0.09.

Question: With UAACUGGGGGCCGCAGCAGAAGCGUUCACGUCGCAGCCCCUGUCAGAUUCUGGUGAAUCUGCGAAUUCUGCUGUAUGUCUC [A5U A13G A77G] as the variant, how does the self-cleavage read?
Answer: Its self-cleavage is 1.09.

Question: For UAACUGGGGGCCGCAGCAGAAGCGUUCACGCCGCAGCCCCUGUCAGAUCCUGGUCAAUCUGCGGAUUCUGCAGUAUAUCUC [A5U A13G U31C U49C G55C A64G U72A], which self-cleavage is on record?
Answer: The self-cleavage was 0.16.

Question: Which self-cleavage does the source give for UAACUGGGGGCCUCAGCGGAAGCGUUCACGUCGCAGCCCCUGUCAGACUCUGGUGAGUCUACGAAUUCUGCUGUAUAUCUC [A5U A13U A18G U48C A57G G61A] here?
Answer: Its self-cleavage is 0.38.

Question: For UAACUGGGGGCCACCGCAGAAGCGUUCACGUCGCAGCCCCUGUCAGAUUCUGGUGAAUCAGCGAAUUCUGCUGUAUAUCUC [A5U A15C U60A], which self-cleavage is on record?
Answer: Its self-cleavage is 0.57.

Question: With UAACUGGGGGCCUCAGCAGAAGCGUUCACGUCGCAGCCCCUGUCAGAUUCUGGUGAAUCUGCGAAUUCUGCUGUAUACCUC [A5U A13U U78C] as the variant, how does the self-cleavage read?
Answer: The self-cleavage was 1.24.

Question: With UAACUGGGGGCCGCAGCAGGAGCGUUCACGUCGCAGCCCCUGUCAGAUUCUGGUGAAUCUGCGAAUUCUGCUGUAUAUCCC [A5U A13G A20G U80C] as the variant, how does the self-cleavage read?
Answer: Its self-cleavage is 0.75.

Question: With UAACUGGGGGCCGCAGCUGAAGCGUUCACGUCGCAGCCCCUGUCAGAUUCUGGUGAAUCUGCGAAUUCUGCUGUAUAUCUC [A5U A13G A18U] as the variant, how does the self-cleavage read?
Answer: Its self-cleavage is 0.47.

Question: Which self-cleavage does the source give for UAACGGGGGGCCACAGCAGAAGCGUUCACGUCGCAGCCCCUGUCAGAUUCUGGUGAAUCUGCGAAUUCUGCUGAUUAUCUC [A5G U74A A75U] here?
Answer: Its self-cleavage is 1.02.

Question: For UAACUGGGGGCCGCAGCAGAAGCGUUCACGUCGCAGCCCCGGUCAGAAUCUGGUGAAUCUGCGAAUUCUGCCGUAUAUCUC [A5U A13G U41G U48A U72C], which self-cleavage is on record?
Answer: Its self-cleavage is 0.62.

Question: Which self-cleavage does the source give for UAACUGGGGGCCGCAGCAGGAGCGUUCACGUCGCAGCCCCUGUCGGAUUCUGGUGAAUCUGCGAAUUCUGCUGUAUAUCUC [A5U A13G A20G A45G] here?
Answer: The self-cleavage was 0.59.

Question: Which self-cleavage does the source give for UAACUGGGGGCCUCAGCAGGAGCGUCCACGUCGCAGCCCCUGUCAGAUUCUGGUGAAUCUGCGAAUUCUGCUGUAUAUCUC [A5U A13U A20G U26C] here?
Answer: The self-cleavage was 0.29.

Question: With UAACUGGGGGCCUCAGCAGAAGCGUUUACGGCGCAGCCCCUGCCAGAUUCAGGUGAAUCUGCGAAUUCUGCUGUAUUUCUC [A5U A13U C27U U31G U43C U51A A77U] as the variant, how does the self-cleavage read?
Answer: The self-cleavage was 0.13.

Question: For UAACGGGGGGCCACAGCAGAAGCGUUCACGUCGCAGCCCCUGUCAGAUUCUGGUGAAUCUGCGAAUUCUGCUGUAUACCAC [A5G U78C U80A], which self-cleavage is on record?
Answer: The self-cleavage was 1.06.

Question: For UAACUGGGGGCCCCAGCGGAAGCGUUCACGUCGCAGCCCCUGUCAGAUUCUGGCGAAUCUGCGAAUUCUGCUGUAUAUCUC [A5U A13C A18G U54C], which self-cleavage is on record?
Answer: Its self-cleavage is 1.07.

Question: Which self-cleavage does the source give for UAACUGGGGGCCACCGCAGAAGCGUUCACGUCGCAGCCCCUGUCAGAUGCUGGUGGAUCUGCGAACUCUGGUGUAUAUCCC [A5U A15C U49G A56G U66C C71G U80C] here?
Answer: The self-cleavage was 0.05.

Question: For UAACUGGGGGCCGCAGCAGAAGCGUUCACGUCGCAGCCCCUGUCAGAUUCUGGUGUAUCUGCGAAUUCUGCGGUACUUCUC [A5U A13G A56U U72G U76C A77U], which self-cleavage is on record?
Answer: The self-cleavage was 0.26.

Question: Which self-cleavage does the source give for UAACUGGGGGCCACGGCAGAAGCGUUCACGUCGCAGCCCCUGUCAGAUUCUGGUGAAUCUGCGAAUUCUGCUGAAUAUCUC [A5U A15G U74A] here?
Answer: The self-cleavage was 1.04.

Question: With UAACUGGGGGCCACGGCUGAAGCGCUCACGUCGCAGCCCCUGUCAGAUUCUGGUGAAUCUGCGAAUUCUGCUGUAUAUCUC [A5U A15G A18U U25C] as the variant, how does the self-cleavage read?
Answer: Its self-cleavage is 0.39.

Question: With UAACUGGGGGCCACGGCAGAAGCGCUCACGUCGCAGCCCCUGUCAGAUUCUAGUGAAUCUGCGGAUUCUGCAGUAUAUCUC [A5U A15G U25C G52A A64G U72A] as the variant, how does the self-cleavage read?
Answer: Its self-cleavage is 0.11.

Question: With UAACUGGGGGCCACGGCAGAAGCGUUCACGUCUCAGCCCCUGUCUGAUUCUGGGGGAUCUGCGAAUUCCGCUGUAUAUCUC [A5U A15G G33U A45U U54G A56G U69C] as the variant, how does the self-cleavage read?
Answer: Its self-cleavage is 0.1.

Question: Which self-cleavage does the source give for UAACUGGGGGCCGCAGCAGGAGCGUUCACGUCGCAGCCCCUGUCAGAUUCUGGUGAAUCUGCGAAUUCUGCUGUAUAUCUC [A5U A13G A20G] here?
Answer: The self-cleavage was 0.82.

Question: Which self-cleavage does the source give for UAACUGGGGGCCACGGCAGAAGCGUUCACGUCGCAGCCCCUGUCGGAUUCUGGUGAAUCUGGGAAUUCUGCUGUAUAUCCC [A5U A15G A45G C62G U80C] here?
Answer: Its self-cleavage is 0.24.
